Data: paper PMC9444247
Positions count from the first letter of the chain named. These are yes or no findings as the source states them, for the method shown. In cells and extracts the contact can be indirect. Some entries that bind do so weakly or less than the wild type. Where a sequence is shown, tags or fusion partners need not be part of it.

Chains of the proteins cited; added tags and fusions are not shown.
UniProt Q3SXY8: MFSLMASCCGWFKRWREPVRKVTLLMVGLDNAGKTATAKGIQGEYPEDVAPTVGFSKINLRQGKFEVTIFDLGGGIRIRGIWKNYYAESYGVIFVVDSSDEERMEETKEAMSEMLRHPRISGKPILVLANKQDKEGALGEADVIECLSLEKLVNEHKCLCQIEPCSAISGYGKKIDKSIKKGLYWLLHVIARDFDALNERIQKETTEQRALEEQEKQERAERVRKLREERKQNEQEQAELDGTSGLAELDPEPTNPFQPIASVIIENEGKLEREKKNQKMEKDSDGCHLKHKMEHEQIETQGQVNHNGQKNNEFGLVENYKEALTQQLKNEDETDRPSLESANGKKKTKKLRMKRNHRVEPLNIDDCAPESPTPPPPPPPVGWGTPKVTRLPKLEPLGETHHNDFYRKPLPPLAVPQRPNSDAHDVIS

Legend:
Experiment in all cases: co-IP; EGFP fusion (bait) expressed in HEK293T with the co-transfected or endogenous partner; lysis in 50 mM Tris-HCl pH 7.5, 150 mM NaCl, 1% Igepal CA-630; EGFP fusions immunoprecipitated with GFP-Trap magnetic agarose beads for 2 hr or overnight at 4 °C; Western blot
[1] = biological target: T1, EGFP-INPP5E (1-283) (human) (UniProt Q9NRR6)
T1 sequence: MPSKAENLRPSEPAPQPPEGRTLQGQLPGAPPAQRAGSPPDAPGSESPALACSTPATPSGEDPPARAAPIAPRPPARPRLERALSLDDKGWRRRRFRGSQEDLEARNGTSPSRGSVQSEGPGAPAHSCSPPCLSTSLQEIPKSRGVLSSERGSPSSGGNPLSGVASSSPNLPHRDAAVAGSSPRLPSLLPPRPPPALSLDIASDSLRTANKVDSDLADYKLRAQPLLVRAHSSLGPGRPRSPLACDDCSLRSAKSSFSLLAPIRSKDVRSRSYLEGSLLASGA

[2] = biological target: T2, EGFP-INPP5E (251-644) (human) (UniProt Q9NRR6)
T2 sequence (chain, CaaX box cysteine C641 farnesylated in cells, as the paper says of INPP5E): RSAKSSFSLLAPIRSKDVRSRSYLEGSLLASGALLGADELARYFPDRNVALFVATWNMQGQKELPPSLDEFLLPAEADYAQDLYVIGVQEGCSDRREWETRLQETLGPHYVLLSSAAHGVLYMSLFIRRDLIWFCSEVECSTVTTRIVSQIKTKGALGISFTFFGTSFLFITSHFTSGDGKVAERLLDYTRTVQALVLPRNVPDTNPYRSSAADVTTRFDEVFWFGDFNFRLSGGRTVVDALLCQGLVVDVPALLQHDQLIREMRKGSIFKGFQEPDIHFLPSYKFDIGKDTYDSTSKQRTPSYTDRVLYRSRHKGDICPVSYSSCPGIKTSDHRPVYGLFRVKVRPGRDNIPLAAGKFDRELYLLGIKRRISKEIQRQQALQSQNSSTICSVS

[3] = biological target: T3, EGFP-INPP5E (C641S) (human) (UniProt Q9NRR6)
T3 sequence: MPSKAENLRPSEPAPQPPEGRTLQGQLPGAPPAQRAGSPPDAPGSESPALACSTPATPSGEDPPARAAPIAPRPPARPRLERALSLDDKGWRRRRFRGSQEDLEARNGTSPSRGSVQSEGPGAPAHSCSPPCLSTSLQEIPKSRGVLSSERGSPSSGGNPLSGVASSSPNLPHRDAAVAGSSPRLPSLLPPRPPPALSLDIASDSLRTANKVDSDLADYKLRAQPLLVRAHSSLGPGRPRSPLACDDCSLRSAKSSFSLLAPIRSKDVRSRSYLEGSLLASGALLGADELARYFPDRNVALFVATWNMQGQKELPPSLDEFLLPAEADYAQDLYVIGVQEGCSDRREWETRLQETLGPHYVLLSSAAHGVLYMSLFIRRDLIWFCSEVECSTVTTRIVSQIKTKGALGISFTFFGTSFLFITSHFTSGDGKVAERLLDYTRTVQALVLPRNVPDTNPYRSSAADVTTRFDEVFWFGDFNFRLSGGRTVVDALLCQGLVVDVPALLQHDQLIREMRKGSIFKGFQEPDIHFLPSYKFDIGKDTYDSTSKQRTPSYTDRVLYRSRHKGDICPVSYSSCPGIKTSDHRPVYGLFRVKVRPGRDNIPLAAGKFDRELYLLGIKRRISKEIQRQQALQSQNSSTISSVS

[4] = biological target: T4, EGFP-INPP5E (FDR609AAA) (human) (UniProt Q9NRR6)
T4 sequence (chain, CaaX box cysteine C641 farnesylated in cells, as the paper says of INPP5E): T3 sequence with F609A, D610A, R611A, S641C

[5] = biological target: T5, EGFP-INPP5E (W383A) (human) (UniProt Q9NRR6)
T5 sequence (chain, CaaX box cysteine C641 farnesylated in cells, as the paper says of INPP5E): T3 sequence with W383A, S641C

[6] = biological target: T6, EGFP-INPP5E (wild type) (human) (UniProt Q9NRR6)
T6 sequence (chain, CaaX box cysteine C641 farnesylated in cells, as the paper says of INPP5E): T3 sequence with S641C

[7] = biological target: T7, EGFP-INPP5E (Δ251–273) (human) (UniProt Q9NRR6)
T7 sequence (chain, CaaX box cysteine C641 farnesylated in cells, as the paper says of INPP5E): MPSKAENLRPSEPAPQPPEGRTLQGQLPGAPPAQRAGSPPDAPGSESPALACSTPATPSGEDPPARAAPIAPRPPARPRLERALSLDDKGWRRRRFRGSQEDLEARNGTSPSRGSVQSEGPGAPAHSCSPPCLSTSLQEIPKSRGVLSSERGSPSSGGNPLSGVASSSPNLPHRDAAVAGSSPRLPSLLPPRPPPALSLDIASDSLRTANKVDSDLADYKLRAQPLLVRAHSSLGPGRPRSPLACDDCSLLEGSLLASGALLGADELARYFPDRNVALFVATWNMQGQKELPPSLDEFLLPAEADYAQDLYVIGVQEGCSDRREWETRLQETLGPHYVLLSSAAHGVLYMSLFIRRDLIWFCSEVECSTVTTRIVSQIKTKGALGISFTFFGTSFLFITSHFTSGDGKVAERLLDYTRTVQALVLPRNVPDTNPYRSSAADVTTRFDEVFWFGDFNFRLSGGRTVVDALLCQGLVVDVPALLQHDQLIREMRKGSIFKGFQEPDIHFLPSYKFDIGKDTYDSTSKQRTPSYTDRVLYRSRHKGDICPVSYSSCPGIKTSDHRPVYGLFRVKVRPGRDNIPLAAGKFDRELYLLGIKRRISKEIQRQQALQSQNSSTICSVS

[8] = biological target: T8, EGFP-INPP5E (Δ251–273+C641S) (human) (UniProt Q9NRR6)
T8 sequence: T7 sequence (chain, CaaX box cysteine C641 farnesylated in cells, as the paper says of INPP5E) with C618S

binding [1]: no binding
binding [2]: binds
binding [3]: binds weakly
binding [4]: binds
binding [5]: binds
binding [6]: binds
binding [7]: binds
binding [8]: binds weakly
Substance: endogenous ARL13B (from UniProt Q3SXY8 1-428)
